“And” between values parts separate entries of the source, which are not always exact repeats. Identical values can stand only once. The whole screen tested about 220,000 compounds, of which about 5,700 (2.6%) were called active. This list was built around the results that the source calls inconclusive (neither active nor inactive); the mix of calls is not that of the screen. Calls come from the whole dose curve; as a rule, active = well fitted inhibition curve with a large enough effect; inconclusive = small, poorly fitted or top-dose-only effect; inactive = no such curve, though single readings can be large or run the other way. Potencies of inconclusive entries are doubtful fits and often do not repeat.
The compounds below were run against Lysine-specific demethylase 5B (Homo sapiens) (UniProt Q9UGL1) (assay: Primary screen for KDM5B Histone Demethylases FDH-coupled qHTS). Conditions: FDH-coupled NADH fluorescence (FDH is formaldehyde dehydrogenase); series mostly up to 57.7 µM.
UniProt Q9UGL1, sequence (Q9UGL1 whole entry, looked up): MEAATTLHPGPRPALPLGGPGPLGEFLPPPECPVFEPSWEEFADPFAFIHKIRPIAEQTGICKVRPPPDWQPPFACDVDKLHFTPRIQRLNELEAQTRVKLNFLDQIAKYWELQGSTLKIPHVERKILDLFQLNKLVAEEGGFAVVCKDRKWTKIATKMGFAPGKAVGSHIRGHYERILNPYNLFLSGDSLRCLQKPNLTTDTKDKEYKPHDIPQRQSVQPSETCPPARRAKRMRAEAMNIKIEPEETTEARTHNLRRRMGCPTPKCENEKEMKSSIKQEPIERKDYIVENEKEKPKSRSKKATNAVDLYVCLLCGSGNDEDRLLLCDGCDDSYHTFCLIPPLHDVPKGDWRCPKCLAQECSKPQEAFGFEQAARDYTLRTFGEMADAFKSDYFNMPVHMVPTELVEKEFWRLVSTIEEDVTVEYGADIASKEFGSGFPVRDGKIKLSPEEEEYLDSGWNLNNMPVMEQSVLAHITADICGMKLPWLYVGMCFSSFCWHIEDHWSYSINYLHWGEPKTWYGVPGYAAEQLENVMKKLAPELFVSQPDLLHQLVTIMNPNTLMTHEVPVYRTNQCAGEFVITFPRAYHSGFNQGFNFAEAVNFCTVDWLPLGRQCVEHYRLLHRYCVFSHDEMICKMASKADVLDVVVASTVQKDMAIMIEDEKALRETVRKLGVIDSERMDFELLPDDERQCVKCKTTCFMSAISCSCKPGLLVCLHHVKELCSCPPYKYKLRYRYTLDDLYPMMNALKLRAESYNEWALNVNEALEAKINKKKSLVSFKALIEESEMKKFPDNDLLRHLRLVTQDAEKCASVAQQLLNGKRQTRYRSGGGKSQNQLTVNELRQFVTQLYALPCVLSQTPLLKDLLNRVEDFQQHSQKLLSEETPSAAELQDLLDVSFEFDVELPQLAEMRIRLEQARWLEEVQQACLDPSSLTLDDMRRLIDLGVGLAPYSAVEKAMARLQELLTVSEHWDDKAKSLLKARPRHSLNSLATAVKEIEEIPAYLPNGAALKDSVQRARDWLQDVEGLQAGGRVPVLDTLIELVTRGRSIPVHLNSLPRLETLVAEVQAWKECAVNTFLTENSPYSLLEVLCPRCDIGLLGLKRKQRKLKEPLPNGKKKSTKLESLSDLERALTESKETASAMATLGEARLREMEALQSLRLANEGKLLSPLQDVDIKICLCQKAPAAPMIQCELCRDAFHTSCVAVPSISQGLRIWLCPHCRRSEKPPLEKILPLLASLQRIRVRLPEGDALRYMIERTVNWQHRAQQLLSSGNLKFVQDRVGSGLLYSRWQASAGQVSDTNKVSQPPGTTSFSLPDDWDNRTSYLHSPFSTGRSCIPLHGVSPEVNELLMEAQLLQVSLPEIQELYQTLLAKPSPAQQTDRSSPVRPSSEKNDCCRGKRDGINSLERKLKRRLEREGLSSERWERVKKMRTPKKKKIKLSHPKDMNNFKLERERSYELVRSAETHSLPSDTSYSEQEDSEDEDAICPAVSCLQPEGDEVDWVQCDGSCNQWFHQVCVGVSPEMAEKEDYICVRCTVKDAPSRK
Summary of the method: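 KDM5BΔAP (200 nM final) in 50 mM HEPES pH 7.5, 0.01% Tween-20 was preincubated 10 min at RT with compound over a concentration range. Substrate mix (H3K4me3 12.5 µM, α-KG 25 µM, Fe²⁺, ascorbate, NAD⁺, FDH) was added, and NADH fluorescence change over 30 min gave dose-response curves.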
`O=C(CCc1ncc(-c2ccc(F)cc2)o1)N1CCN(c2ccccc2Cl)CC1` was tested, and the Potency was “inactive”. `COc1cccc(C(=O)NCC(c2ccc(N(C)C)cc2)N2CCc3ccccc32)c1OC` (stereo not drawn) was tested, and the Potency was inconclusive: 35.5 µM [inhibitor, partial curve, poor fit]. With `CC(C)c1ccc(C(=O)Nc2ccc(-c3nc4ccccc4s3)c(Cl)c2)cc1` the Potency was inconclusive: 2.82 µM [inhibitor, partial curve, poor fit]. `CCC(C)NC(=O)CCN(CC(C)C)C(=O)c1cc(C)oc1C` (stereo not drawn) was tested, and the Potency was inconclusive: 28.2 µM [inhibitor, partial curve, poor fit]. For `Cc1ccc2nsnc2c1NC(=O)c1cc(Br)ccc1Cl`, the Potency was inconclusive: 35.5 µM [inhibitor, single point]. With `CCc1noc(-c2cn(C3CCCN(C(=O)c4ccc(F)c(Cl)c4)C3)nn2)n1` (stereo not drawn) the Potency was “inactive”. `COCCn1cnc2ccc(-c3ccc4c(ccn4C)c3)nc2c1=O` was tested, and the Potency was inconclusive: 35.5 µM [inhibitor, partial curve, poor fit]. `COc1ccc(-c2cc(N3CCC(NC(=O)c4ccncc4)C3)n[nH]2)cc1` (stereo not drawn) was tested, and the Potency was inconclusive: 25.1 µM [inhibitor, partial curve, poor fit]. In the case of `Cc1ccccc1Nc1cc(C(=O)NC2CCC(C)CC2)c2ccccc2n1` (stereo not drawn), the Potency is reported as inconclusive: 25.1 µM [inhibitor, partial curve, poor fit]. For `CCOC(=O)c1ccc(NC(=O)c2c(NCc3cccc(OC)c3)sc3c2CCC3)cc1`, the Potency was inconclusive: 31.6 µM [inhibitor, single point]. In the case of `O=S(=O)(c1ccc(Cl)cc1)N1CCN(c2nc(-c3cccs3)nc3ccccc23)CC1`, the Potency is reported as inconclusive: 1.78 µM [inhibitor, partial curve, poor fit]. With `COc1ccc(C(=O)N2CCc3nc(C4CC4)nc(-c4ccc(OC)cc4)c3C2)cc1` the Potency was “inactive”. `FC(F)(F)c1ccc(N2C3CCC2CN(Cc2ccc(-c4cccs4)cc2)C3)cc1` was tested, and the Potency was active: 79.4 µM and active: 28.2 µM. For `COc1cc(C#N)ccc1OCc1ccccc1Cl`, the Potency was “inactive”. With `O=C(NC1CCN(c2cc(-c3ccc(F)cc3)[nH]n2)C1)c1ccc(F)c(F)c1` (stereo not drawn) the Potency was inconclusive: 2.82 µM [inhibitor, partial curve, poor fit]. `C=CCNC(=O)N[C@H]1C[C@H]2C(=O)Nc3ccc(/C=C/c4ccc(OC)cc4)cc3C(=O)N2C1` was tested, and the Potency was active: 22.4 µM. In the case of `COC(=O)CSCc1nc(-c2ccc(C(=O)OC)cc2)oc1C`, the Potency is reported as inconclusive: 35.5 µM [inhibitor, partial curve, poor fit]. `COC(=O)c1cccc(Nc2c(-c3ccc(O)cc3)nc3nc[nH]n23)c1` was tested, and the Potency was inconclusive: 15.8 µM [inhibitor, partial curve, poor fit]. `COc1ccc(N2CCN(C(=O)c3cn(C4CCCCC4)c(=O)c4c3c3ccccc3n4C)CC2)cc1` was tested, and the Potency was inconclusive: 39.8 µM [inhibitor, single point]. For `Cc1ccccc1CNC[C@H]1Cn2ccnc2CO1`, the Potency was “inactive”. In the case of `Cc1ccc(-c2cc3c(=O)n(CCNC(=O)c4cccc(C#N)c4)ccn3n2)c(C)c1`, the Potency is reported as inconclusive: 28.2 µM [inhibitor, single point]. In the case of `O=C(c1n[nH]c2c1CCCC2)N1CCc2c(nc3cc[nH]n3c2=O)C1`, the Potency is reported as active: 28.2 µM. For `O=C(c1ccc(-c2ccc(N3CCCCCC3)nc2)cc1)N1CCCC1`, the Potency was active: 25.1 µM. In the case of `NC(=O)c1ccsc1NC(=O)COC(=O)c1cccc(Cl)c1Cl`, the Potency is reported as “inactive”. For `CCOc1ccc2[nH]c(C(=O)N/N=C/c3ccc(OC)cc3)cc2c1`, the Potency was inconclusive: 25.1 µM [inhibitor, partial curve, poor fit]. For `CC(=O)Nc1ccc(S(=O)(=O)NC(c2ccc(F)cc2)c2cccs2)cc1` (stereo not drawn), the Potency was “inactive”. In the case of `Cc1ccc(CNC(=O)c2cc3c(N4CCSCC4)nc(C)cn3n2)cc1`, the Potency is reported as inconclusive: 31.6 µM [inhibitor, partial curve, poor fit]. `COc1ccc(-c2cc(C(=O)Nc3ccc(S(=O)(=O)Nc4ncccn4)cc3)c3ccccc3n2)cc1` was tested, and the Potency was inconclusive: 35.5 µM [inhibitor, partial curve, poor fit]. With `COc1ccc(-c2cc(-c3cccnc3OC)cn3cncc23)cc1` the Potency was active: 35.5 µM. With `CCOc1ccccc1C(=O)N(Cc1ccccc1)C1CCS(=O)(=O)C1` (stereo not drawn) the Potency was “inactive”. With `CC(Sc1ncnc2ccccc12)C(=O)Nc1ccc(Cl)cc1Cl` (stereo not drawn) the Potency was “inactive”. `Cc1noc(-c2ccc(N3CCN(Cc4nccn4C)CC3)nc2)n1` was tested, and the Potency was inconclusive: 31.6 µM [inhibitor, partial curve, poor fit]. With `Clc1ccc(-c2cnc3n[nH]c(-c4ccccc4)c3n2)cc1` the Potency was inconclusive: 56.2 µM [inhibitor, single point]. In the case of `O=C(CCCc1ccccc1)NCC(=O)N1CCN(c2ccccn2)CC1`, the Potency is reported as active: 28.2 µM. In the case of `CCc1noc(-c2ccn3c(CNC(=O)COc4cccc(C)c4)nnc3c2)n1`, the Potency is reported as inconclusive: 25.1 µM [inhibitor, partial curve, poor fit]. With `Cc1ccc(C)c(NC(=O)N2CCN(c3nnc(C)c4c(C)n(-c5ccccc5)nc34)CC2)c1` the Potency was inconclusive: 31.6 µM [inhibitor, single point]. In the case of `CCCn1cc2c3c(cccc31)CN(C(=O)c1ccccc1F)CC2`, the Potency is reported as inconclusive: 31.6 µM [inhibitor, partial curve, poor fit]. In the case of `O=C(Nn1cnnc1)c1ccc(Br)cc1`, the Potency is reported as “inactive”. For `CC(C)Oc1ccc(CNC(=O)c2ccc3c(c2)N(Cc2ccc(F)cc2)CCS3)cc1`, the Potency was inconclusive: 35.5 µM [inhibitor, partial curve, poor fit]. In the case of `CC(C)COc1ccc(C(=O)N2CCC(c3nc4ccccc4o3)CC2)cc1`, the Potency is reported as “inactive”. With `O=C(O)c1ccc[nH]c1=S` the Potency was inconclusive: 11.2 µM [inhibitor, partial curve, poor fit]. For `COP(=O)(OC)c1nc(Cc2ccc(Cl)cc2)oc1NCc1ccco1`, the Potency was “inactive”. With `CCOC(=O)c1cc(-c2ccccc2)n(-c2cccc(C(=O)NC(C)CC)c2)c1C` (stereo not drawn) the Potency was inconclusive: 35.5 µM [inhibitor, single point].

From PubChem BioAssay AID1347165 (National Center for Advancing Translational Sciences (NCATS), 2019)
Note: nearly all actives have a fitted effect of over 70% in size.
Potency is the fitted concentration of half-maximal effect; tags give direction and shape of the fitted curve.
